Reference: PubChem BioAssay (Tox21)
Several values for one entry are separate records, joined by “and”; a condition that tells them apart may be missing. Equal entries are not always repeated. Inconclusive results, whose numbers are uncertain, are shown with a selection of clear calls. For some of these results: A potency beside an inconclusive call is a rough fit, not a confirmed value. Activity calls are given as the source filed them. Unless noted, calls come from the whole dose curve; as a rule, active = well fitted curve in the direction sought with a large enough effect in the repeat runs; inconclusive = weak or mixed curves; inactive = no such curve, though single readings can be large; an effect the other way counts as inactive or inconclusive.

How the values were obtained:
[1] = molecular target: Peroxisome proliferator-activated receptor gamma (Homo sapiens) (UniProt P37231); experiment: qHTS assay to identify small molecule antagonists of the peroxisome proliferator-activated receptor gamma (PPARg) signaling pathway (AID 743191; calls by dose curve; note: % is set by controls: 0 for no effect and ±100 for the full control effect; nearly all actives have a fitted effect of over 30% in size); conditions: HEK293H PPARg-UAS-bla, beta-lactamase ratio, antagonist, 17 h
In short: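 Beta-lactamase reporter under UAS control in HEK293H PPARg-bla cells; compound treatment 17 h at 37C. Read-out: fluorescence intensity after 1 h room-temperature incubation with LiveBLAzer B/G FRET substrate.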

[2] = molecular target: Retinoic acid receptor RXR-alpha (Homo sapiens) (UniProt P19793); experiment: qHTS assay to identify small molecule agonists of the RXR signaling pathway (AID 1159527; calls by dose curve; note: nearly all actives have a fitted effect of over 35% in size; note: potency is the fitted concentration of half-maximal effect; for activation: % is set by controls: 0 for no effect and ±100 for the full control effect); conditions: HEK293T RXRa-UAS-bla, beta-lactamase ratio, 16 h; activation: at 76.8 µM (top of the series) unless noted
In short: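 Agonist mode; 9-cis retinoic acid positive control. HEK 293T UAS-bla reporter cells, 2% charcoal-stripped FBS, 16 hr compound exposure at 37 C/5% CO2. LiveBLAzer B/G FRET substrate 2 hr RT; ex 405, em 460/530 nm.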

[3] = qHTS assay to identify small molecule antagonists of the sonic hedgehog signaling (Shh) pathway (AID 1259369; calls by dose curve; note: % is set by controls: 0 for no effect and ±100 for the full control effect; nearly all actives have a fitted effect of over 45% in size)
In short: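 Stable Gli1-Luc reporter NIH/3T3 clone; quantitative HTS in stimulated mode with conditioned medium. Luminescence measured after 24hr compound treatment at 37 C.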

[4] = molecular target: Glucocorticoid receptor (Homo sapiens) (UniProt P04150); experiment: qHTS assay to identify small molecule antagonists of the glucocorticoid receptor (GR) signaling pathway (AID 720692; active = well fitted inhibition curve with a large enough effect in the signal ratio in the repeat runs, not every such curve was filed as active; inconclusive = weak or mixed curves, or effect the other way; inactive = no such curve, though single readings can be large or run the other way; the % refers to the signal ratio; note: % is set by controls: 0 for no effect and ±100 for the full control effect); conditions: GR-bla HeLa, beta-lactamase FRET ratio, dexamethasone-stimulated, 18 h; activity change, negative = inhibition: at 58.5 µM (top of the series) unless noted
In short: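 Quantitative HTS in antagonist format: HeLa cells expressing endogenous GR and a stably integrated GRE-bla reporter, stimulated with 5 nM dexamethasone (final) alongside test compounds for 18 h.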

[5] = qHTS assay for identifying genotoxic compounds that show differential cytotoxicity against isogenic chicken DT40 cell lines with known DNA damage response pathways - wild type cell line (AID 743012); conditions: DT40 wild type chicken cells viability, CellTiter-Glo, 40 h; activity change, negative = cytotoxicity: at 68.4 µM (top of the series) unless noted; note: % is set by controls: 0 for no effect and ±100 for the full control effect; nearly all actives have a fitted effect of over 60% in size
In short: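 Luminescent ATP viability signal (CellTiter-Glo, 30 min RT) recorded after wild type DT40 cells were incubated with compounds for 40 h at 37 C/5% CO2.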

[6] = molecular target: Vitamin D3 receptor (Homo sapiens) (UniProt P11473); experiment: qHTS assay to identify small molecule antagonists of the vitamin D receptor (VDR) signaling pathway (AID 743223; active = well fitted inhibition curve with a large enough effect in the signal ratio in the repeat runs, not every such curve was filed as active; inconclusive = weak or mixed curves, or effect the other way; inactive = no such curve, though single readings can be large or run the other way; the % refers to the signal ratio; note: potency is the fitted concentration of half-maximal effect; for activity change, negative = inhibition: % is set by controls: 0 for no effect and ±100 for the full control effect); conditions: VDR-UAS-bla HEK293T, beta-lactamase FRET ratio, 16 h; activity change, negative = inhibition: at 61 µM (top of the series) unless noted
In short: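 Beta-lactamase reporter read-out: FRET substrate fluorescence after 2 h at room temperature, following 16 h exposure of VDR-bla cells to test compound plus 3 nM (final) 1alpha,25-dihydroxyvitamin D3 agonist at 37C.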

[7] = qHTS assay to identify small molecule antagonists of the progesterone receptor (PR) signaling pathway - cell viability counter screen (AID 1346798); note: % is set by controls: 0 for no effect and ±100 for the full control effect; nearly all actives have a fitted effect of over 50% in size
In short: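 Luminescence readout (CellTiter-Glo, 30 min, RT) of viability in PR-UAS-bla HEK293T cells exposed to compound and R5020 agonist for 16 hr at 37C, 5% CO2; run in the same wells as the beta-lactamase reporter read.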

[8] = molecular target: Cytochrome P450 1A2 (Homo sapiens) (UniProt P05177); experiment: Cytochrome P450 Family 1 Subfamily A Member 2 (CYP1A2) small molecule antagonists: luciferase reporter qHTS assay (AID 1671199); note: potency is the fitted concentration of half-maximal effect; nearly all actives have a fitted effect of over 50% in size
In short: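 Steps: enzyme-substrate mix dispensed; test compounds and furafylline control pinned in; 10 min room temperature; NADPH regeneration solution added, 1 h; reaction stopped with luciferin detection reagent; luminescence read after 20 min.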

[9] = qHTS assay for small molecule disruptors of the mitochondrial membrane potential (AID 720635); conditions: HepG2 mitochondrial membrane potential, Mito-MPS dye ratio; ratio activity, negative = MMP loss: at 83.2 µM (top of the series) unless noted; note: potency is the fitted concentration of half-maximal effect
In short: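 Mitochondrial membrane potential tracked with Mito-MPS dye, red aggregates (ex 540/em 590 nm) against green monomers (ex 490/em 535 nm). Compound treatment 1 hr at 37C, dye 30 min in HepG2.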

[10] = qHTS assay for small molecule agonists of the antioxidant response element (ARE) signaling pathway (AID 743202; active = well fitted activation curve with a large enough effect in the signal ratio in the repeat runs, not every such curve was filed as active; inconclusive = weak or mixed curves, or effect the other way; inactive = no such curve, though single readings can be large or run the other way; the % refers to the signal ratio; note: potency is the fitted concentration of half-maximal effect); conditions: HepG2 ARE-bla reporter, beta-lactamase FRET, 16 h; activation: at 73.3 µM (top of the series) unless noted
In short: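 Beta-lactamase reporter activity, read as fluorescence intensity, reflects ARE/Nrf2 pathway induction in HepG2 cells after 16 h compound exposure at 37 C; substrate loading was 2 h at room temperature.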

[11] = qHTS assay to identify small molecule antagonists of the peroxisome proliferator-activated receptor delta (PPARd) signaling pathway - cell viability counter screen (AID 743213); conditions: PPARd-bla HEK293H viability, CellTiter-Glo luminescence, 17 h; viability change, negative = cytotoxic: at 62 µM (top of the series) unless noted; note: nearly all actives have a fitted effect of over 50% in size; note: potency is the fitted concentration of half-maximal effect
In short: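 Luminescence from CellTiter-Glo, added after the bla read and incubated 30 min at room temperature, gives viability of HEK293H PPARd-bla cells exposed to compounds for 17 h at 37 C with 300 nM L165041.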

[12] = qHTS assay for small molecule agonists of the p53 signaling pathway (AID 651631; calls by dose curve; note: potency is the fitted concentration of half-maximal effect; nearly all actives have a fitted effect of over 15% in size); conditions: HCT-116 p53RE-bla reporter, beta-lactamase FRET ratio, 16 h; activation: at 73.3 µM (top of the series) unless noted
In short: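 p53RE-bla HCT-116 cells; compounds 16 h, 37 °C; LiveBLAzer B/G FRET substrate 2 h RT; fluorescence intensity read-out, qHTS format.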

[13] = molecular target: Cytochrome P450 2C19 (Homo sapiens) (UniProt P33261); experiment: Cytochrome P450 Family 2 Subfamily C Member 19 (CYP2C19) small molecule antagonists: luciferase reporter qHTS assay (AID 1671197); note: potency is the fitted concentration of half-maximal effect; nearly all actives have a fitted effect of over 65% in size
In short: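 Light output is proportional to CYP2C19 activity: proluciferin substrate is converted to luciferin, then detected by a luciferin detection reagent that also stops the 1 h, 37C NADPH-driven reaction. Ketoconazole serves as positive control.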

[14] = qHTS assay to identify small molecule agonists of the progesterone receptor (PR) signaling pathway - cell viability counter screen (AID 1346799; calls by dose curve; note: % is set by controls: 0 for no effect and ±100 for the full control effect; nearly all actives have a fitted effect of over 45% in size)
In short: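 HEK293T PR-UAS-bla, 3,000 cells/well, 2% charcoal-stripped FBS; 6 h settle, compound 16 h at 37C/5% CO2; LiveBLAzer 2 h RT, then CellTiter-Glo 30 min RT, luminescence read.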

[15] = qHTS assay for identifying genotoxic compounds that show differential cytotoxicity against isogenic chicken DT40 cell lines with known DNA damage response pathways - Rev3 mutant cell line (AID 743014); conditions: chicken DT40 Rev3-/- viability, CellTiter-Glo, 40 h; activity, negative = cytotoxicity: at 68.4 µM (top of the series) unless noted; note: nearly all actives have a fitted effect of over 55% in size; note: potency is the fitted concentration of half-maximal effect
[16] = qHTS assay to identify small molecule agonists of the farnesoid-X-receptor (FXR) signaling pathway - cell viability counter screen (AID 743218); conditions: FXR-bla HEK293T viability, CellTiter-Glo luminescence, 16 h; viability change, negative = cytotoxic: at 62.6 µM (top of the series) unless noted; note: nearly all actives have a fitted effect of over 45% in size; note: potency is the fitted concentration of half-maximal effect
In short: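 Viability of FXR-bla HEK 293T cells is measured by ATP-based CellTiter-Glo luminescence following 16 h compound treatment at 37 C and a prior 2 h room-temperature beta-lactamase substrate step.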

[17] = molecular target: Cytochrome P450 2C9 (Homo sapiens) (UniProt P11712); experiment: Cytochrome P450 Family 2 Subfamily C Member 9 (CYP2C9) small molecule antagonists: luciferase reporter qHTS assay (AID 1671198); note: nearly all actives have a fitted effect of over 50% in size; note: potency is the fitted concentration of half-maximal effect
In short: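 Enzyme-substrate mix preincubated with compound 10 min at room temperature; reaction started with NADPH regeneration solution, 1 h 37C. Luminescent luciferin product read after 20 min detection reagent.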

[18] = molecular target: Progesterone receptor (Homo sapiens) (UniProt P06401); experiment: qHTS assay to identify small molecule antagonists of the progesterone receptor (PR) signaling pathway (AID 1346795; active = well fitted inhibition curve with a large enough effect in the signal ratio in the repeat runs, not every such curve was filed as active; inconclusive = weak or mixed curves; the % refers to the signal ratio; note: % is set by controls: 0 for no effect and ±100 for the full control effect); conditions: PR-UAS-bla HEK293T, beta-lactamase FRET ratio, 16 h; activity change, negative = inhibition: at 92.4 µM (top of the series) unless noted
In short: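 Beta-lactamase reporter, HEK293T PR-UAS-bla line; 2% charcoal-stripped FBS; 6 hr pre-incubation, 37C/5% CO2. Compound + R5020 1 nM final, 16 hr. LiveBLAzer B/G FRET substrate, 2 hr RT; fluorescence intensity read.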

[19] = ratio activity, negative = inhibition: at 62.6 µM (top of the series) unless noted
Tags give direction and shape of the fitted curve or compound fluorescence and quenching.

UniProt P11473, sequence (P11473 whole entry, looked up): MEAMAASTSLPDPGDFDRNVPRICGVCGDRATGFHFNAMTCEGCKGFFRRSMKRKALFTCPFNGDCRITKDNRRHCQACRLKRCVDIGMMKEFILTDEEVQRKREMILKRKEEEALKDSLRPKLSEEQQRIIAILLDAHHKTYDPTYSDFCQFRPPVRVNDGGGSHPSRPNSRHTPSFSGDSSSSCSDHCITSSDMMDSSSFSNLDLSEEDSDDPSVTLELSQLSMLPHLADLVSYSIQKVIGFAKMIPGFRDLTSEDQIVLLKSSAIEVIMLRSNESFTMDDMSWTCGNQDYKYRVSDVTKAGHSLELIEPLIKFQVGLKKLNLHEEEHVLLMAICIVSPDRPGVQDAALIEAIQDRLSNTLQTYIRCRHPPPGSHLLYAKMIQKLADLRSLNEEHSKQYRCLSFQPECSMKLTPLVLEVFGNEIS
UniProt P37231, sequence (P37231 whole entry, looked up): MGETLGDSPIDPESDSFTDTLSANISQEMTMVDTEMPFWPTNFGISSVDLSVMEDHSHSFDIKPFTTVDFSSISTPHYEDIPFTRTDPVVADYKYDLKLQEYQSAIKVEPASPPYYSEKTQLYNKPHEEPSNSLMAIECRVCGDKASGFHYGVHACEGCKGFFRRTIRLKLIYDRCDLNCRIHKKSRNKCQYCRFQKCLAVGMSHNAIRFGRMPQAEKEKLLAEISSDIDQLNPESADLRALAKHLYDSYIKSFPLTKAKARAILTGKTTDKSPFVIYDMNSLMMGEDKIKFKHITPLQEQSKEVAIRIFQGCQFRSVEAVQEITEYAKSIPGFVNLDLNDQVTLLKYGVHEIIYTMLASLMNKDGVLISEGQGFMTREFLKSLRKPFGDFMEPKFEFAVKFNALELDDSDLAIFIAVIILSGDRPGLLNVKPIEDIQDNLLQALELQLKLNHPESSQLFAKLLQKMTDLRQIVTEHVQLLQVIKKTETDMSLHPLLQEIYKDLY
UniProt P11712, sequence (P11712 whole entry, looked up): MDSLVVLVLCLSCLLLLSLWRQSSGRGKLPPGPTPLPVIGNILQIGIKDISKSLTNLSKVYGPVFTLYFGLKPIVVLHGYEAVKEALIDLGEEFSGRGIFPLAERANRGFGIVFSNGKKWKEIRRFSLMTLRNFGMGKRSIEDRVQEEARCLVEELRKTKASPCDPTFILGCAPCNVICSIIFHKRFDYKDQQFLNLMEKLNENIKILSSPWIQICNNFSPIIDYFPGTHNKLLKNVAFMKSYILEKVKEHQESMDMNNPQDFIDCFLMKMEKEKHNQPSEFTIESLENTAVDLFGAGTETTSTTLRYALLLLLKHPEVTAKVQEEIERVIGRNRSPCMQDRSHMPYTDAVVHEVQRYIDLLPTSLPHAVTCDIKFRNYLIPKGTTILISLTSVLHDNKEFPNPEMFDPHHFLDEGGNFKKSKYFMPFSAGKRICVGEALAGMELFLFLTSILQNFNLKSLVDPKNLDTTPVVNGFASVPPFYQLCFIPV
UniProt P19793, sequence (P19793 whole entry, looked up): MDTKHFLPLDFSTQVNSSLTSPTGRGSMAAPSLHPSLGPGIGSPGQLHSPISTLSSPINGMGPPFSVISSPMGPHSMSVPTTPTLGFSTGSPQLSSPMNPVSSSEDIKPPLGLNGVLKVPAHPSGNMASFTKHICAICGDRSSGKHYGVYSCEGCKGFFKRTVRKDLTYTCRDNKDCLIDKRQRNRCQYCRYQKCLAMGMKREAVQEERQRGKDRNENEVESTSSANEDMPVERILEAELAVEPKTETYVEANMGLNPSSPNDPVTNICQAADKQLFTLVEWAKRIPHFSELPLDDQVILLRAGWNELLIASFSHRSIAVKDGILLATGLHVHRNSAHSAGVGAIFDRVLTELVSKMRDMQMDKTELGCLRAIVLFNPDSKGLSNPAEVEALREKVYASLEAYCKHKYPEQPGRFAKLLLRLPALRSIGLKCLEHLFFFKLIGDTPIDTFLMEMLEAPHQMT
UniProt P05177, sequence (P05177 whole entry, looked up): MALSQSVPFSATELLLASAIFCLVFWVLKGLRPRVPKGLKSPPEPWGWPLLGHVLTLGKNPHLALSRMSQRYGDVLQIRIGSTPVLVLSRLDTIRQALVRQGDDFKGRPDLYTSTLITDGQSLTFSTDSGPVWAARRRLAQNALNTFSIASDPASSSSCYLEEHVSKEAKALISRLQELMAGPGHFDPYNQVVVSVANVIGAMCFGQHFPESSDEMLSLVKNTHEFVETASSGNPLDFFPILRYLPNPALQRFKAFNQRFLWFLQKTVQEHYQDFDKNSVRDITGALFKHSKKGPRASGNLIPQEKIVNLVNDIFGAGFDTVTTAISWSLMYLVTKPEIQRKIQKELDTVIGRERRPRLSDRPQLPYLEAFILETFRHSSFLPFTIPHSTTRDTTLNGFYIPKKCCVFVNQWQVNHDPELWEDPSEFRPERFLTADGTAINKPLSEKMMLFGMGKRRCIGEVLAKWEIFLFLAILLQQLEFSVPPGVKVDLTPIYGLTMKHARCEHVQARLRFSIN
UniProt P06401, sequence (P06401 whole entry, looked up): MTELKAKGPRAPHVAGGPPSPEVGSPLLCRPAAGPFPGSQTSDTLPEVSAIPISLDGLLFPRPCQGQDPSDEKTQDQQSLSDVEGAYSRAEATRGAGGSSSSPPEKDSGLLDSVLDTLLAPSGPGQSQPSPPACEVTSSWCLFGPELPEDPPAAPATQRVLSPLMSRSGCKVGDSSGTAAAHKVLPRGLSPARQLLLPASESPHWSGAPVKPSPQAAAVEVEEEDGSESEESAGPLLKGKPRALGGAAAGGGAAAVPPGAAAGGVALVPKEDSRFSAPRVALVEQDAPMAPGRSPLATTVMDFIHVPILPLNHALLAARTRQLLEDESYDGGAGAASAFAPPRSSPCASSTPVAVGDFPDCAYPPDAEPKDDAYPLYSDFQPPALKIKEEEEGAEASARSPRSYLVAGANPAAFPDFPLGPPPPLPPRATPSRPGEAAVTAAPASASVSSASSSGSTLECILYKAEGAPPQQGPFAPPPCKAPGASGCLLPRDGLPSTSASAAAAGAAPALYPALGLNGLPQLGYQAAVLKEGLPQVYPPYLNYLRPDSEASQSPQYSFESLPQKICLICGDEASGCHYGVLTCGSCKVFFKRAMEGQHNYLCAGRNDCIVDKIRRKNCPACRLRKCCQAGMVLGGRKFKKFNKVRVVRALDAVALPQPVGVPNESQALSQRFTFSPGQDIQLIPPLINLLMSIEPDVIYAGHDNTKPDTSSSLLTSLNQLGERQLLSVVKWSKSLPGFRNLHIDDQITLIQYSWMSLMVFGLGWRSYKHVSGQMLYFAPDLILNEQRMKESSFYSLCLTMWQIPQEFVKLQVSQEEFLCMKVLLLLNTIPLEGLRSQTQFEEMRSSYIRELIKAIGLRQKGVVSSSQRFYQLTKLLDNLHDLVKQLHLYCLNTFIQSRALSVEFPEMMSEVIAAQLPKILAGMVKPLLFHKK
UniProt P04150, sequence (P04150 whole entry, looked up): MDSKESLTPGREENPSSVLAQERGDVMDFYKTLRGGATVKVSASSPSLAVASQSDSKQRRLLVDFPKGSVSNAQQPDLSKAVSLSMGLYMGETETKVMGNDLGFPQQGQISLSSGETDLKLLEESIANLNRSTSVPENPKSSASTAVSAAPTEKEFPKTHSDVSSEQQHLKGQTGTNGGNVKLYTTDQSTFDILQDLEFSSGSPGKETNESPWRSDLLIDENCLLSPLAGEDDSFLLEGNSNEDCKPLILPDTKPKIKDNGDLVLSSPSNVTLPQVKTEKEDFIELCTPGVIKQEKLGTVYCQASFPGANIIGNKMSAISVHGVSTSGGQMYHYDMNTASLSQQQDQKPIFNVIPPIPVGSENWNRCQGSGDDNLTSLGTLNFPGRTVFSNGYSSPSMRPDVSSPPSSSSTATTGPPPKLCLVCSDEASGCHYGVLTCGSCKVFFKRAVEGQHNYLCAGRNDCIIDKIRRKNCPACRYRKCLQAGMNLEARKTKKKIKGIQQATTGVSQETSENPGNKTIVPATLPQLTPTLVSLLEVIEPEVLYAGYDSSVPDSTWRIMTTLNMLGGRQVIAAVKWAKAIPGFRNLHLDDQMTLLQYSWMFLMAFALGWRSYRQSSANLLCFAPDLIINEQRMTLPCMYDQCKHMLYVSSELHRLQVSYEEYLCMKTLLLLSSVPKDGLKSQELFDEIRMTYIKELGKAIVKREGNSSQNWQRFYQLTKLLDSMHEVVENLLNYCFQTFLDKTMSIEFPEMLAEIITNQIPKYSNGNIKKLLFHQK
UniProt P33261, sequence (P33261 whole entry, looked up): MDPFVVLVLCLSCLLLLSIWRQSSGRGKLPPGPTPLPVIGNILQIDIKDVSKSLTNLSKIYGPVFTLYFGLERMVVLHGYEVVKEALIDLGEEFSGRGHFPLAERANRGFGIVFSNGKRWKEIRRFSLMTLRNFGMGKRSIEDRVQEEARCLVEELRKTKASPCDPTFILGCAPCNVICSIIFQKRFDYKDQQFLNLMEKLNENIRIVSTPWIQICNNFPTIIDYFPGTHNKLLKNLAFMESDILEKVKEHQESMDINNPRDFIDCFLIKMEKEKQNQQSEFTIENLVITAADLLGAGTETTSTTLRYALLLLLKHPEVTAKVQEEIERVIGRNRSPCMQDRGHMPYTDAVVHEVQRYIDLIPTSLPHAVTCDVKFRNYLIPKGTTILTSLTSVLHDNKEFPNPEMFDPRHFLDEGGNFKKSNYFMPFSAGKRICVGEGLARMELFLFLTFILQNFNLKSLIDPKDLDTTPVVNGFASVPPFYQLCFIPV

## CC(C)c1cc(C(C)C)cc(C(C)C)c1
[1]; [19]
  ratio activity, negative = inhibition: inconclusive: 23.3%
[2]
  Potency: active: 15.5 µM
[3]
  Potency: inactive

## CO[Si](C)(OC)c1ccccc1
[4]
  activity change, negative = inhibition: inconclusive: 26.5%
[5]
  Potency: inactive
[6]
  activity change, negative = inhibition: inconclusive: 8.62%
[2]
  Potency: inactive
[7]
  Potency: inactive
[8]
  Potency: inconclusive: 39.9 µM [inhibitor, partial curve]

## CCc1nccnc1CC
[9]
  ratio activity, negative = MMP loss: inconclusive: -15.2% [at 39.1 µM]
[5]
  Potency: inactive
[10]
  activation: inconclusive: 19.8% [at 34.3 µM]
[11]
  Potency: inactive
[2]
  activation: inactive: 9.17% [at 15.8 µM]
[7]
  activity change, negative = cytotoxicity: inactive: 4.54% [at 18.9 µM]

## O=S(=O)(O)c1cc(O)c(O)c(S(=O)(=O)O)c1
[12]
  Potency: inconclusive: 27.3 µM [activator, single point]
[9]
  Potency: inconclusive: 24.3 µM [activator, partial curve, poor fit]
[1]; [19]
  Potency: inactive
[10]
  Potency: inconclusive: 34.3 µM [rising, partial curve, poor fit]
[2]
  Potency: inactive
[13]
  Potency: inconclusive: 15.9 µM [inhibitor, partial curve, poor fit]

## O=C(O)CCCl
[1]; [19]
  ratio activity, negative = inhibition: inconclusive: 11% [at 81.1 µM]
[11]
  Potency: inconclusive: 5.57 µM [cytotoxic, single point]
[6]
  Potency: inconclusive: 1.57 µM [fluorescent, full curve, poor fit]
[2]
  Potency: inactive
[14]
  Potency: inactive
[8]
  Potency: inconclusive: 64.1 µM [inhibitor, partial curve]

## O=C(O)CCc1ccccc1
[15]
  Potency: inactive
[16]
  Potency: inactive
[6]
  activity change, negative = inhibition: inconclusive: 5.67%
[2]
  Potency: inactive
[7]
  Potency: inactive
[17]
  Potency: inactive

## CN(C)N=Nc1ccccc1
[9]
  ratio activity, negative = MMP loss: inconclusive: -0.903%
[2]
  Potency: inactive
[17]
  Potency: inactive

## O=C1CCC(=O)N1
[2]
  Potency: inactive
[3]
  Potency: inactive

## O=C1CCC(N2C(=O)c3ccccc3C2=O)C(=O)N1 (centres undefined)
[9]
  Potency: inactive
[15]
  Potency: inactive and inconclusive: 68.6 µM [cytotoxic, single point]
[1]; at 62.6 µM (top of the series)
  ratio activity, negative = inhibition: inactive: -1.24%
[1]; [19]
  ratio activity, negative = inhibition: inconclusive: 2.55%
[16]
  Potency: inactive and inconclusive: 26.6 µM [cytotoxic, partial curve]
[2]
  Potency: inconclusive: 11 µM [activator]
[18]
  Potency: inactive
[17]
  Potency: inconclusive: 89.4 µM [inhibitor, single point] and inactive

## Brc1ccc(-c2ccccc2)cc1
[6]
  Potency: inactive
[2]
  Potency: inactive
[17]
  Potency: inconclusive: 63.1 µM [inhibitor, partial curve, poor fit]
